Laboratory results as given in publication PMC9373805.
Results are given in words; binding and its absence hold for the method and conditions named. Binding seen in cells or lysates may run through a third protein. Some entries that bind do so weakly or less than the wild type. For some assays here: Where a sequence is shown, tags or fusion partners need not be part of it. One block for each molecule: values may come before it.

Amino acid sequences for entries named in this document (tags omitted). A change or cut given only in a name is not applied to a line headed by its entry. Residues count along the entry.
UniProt Q9Y2H9: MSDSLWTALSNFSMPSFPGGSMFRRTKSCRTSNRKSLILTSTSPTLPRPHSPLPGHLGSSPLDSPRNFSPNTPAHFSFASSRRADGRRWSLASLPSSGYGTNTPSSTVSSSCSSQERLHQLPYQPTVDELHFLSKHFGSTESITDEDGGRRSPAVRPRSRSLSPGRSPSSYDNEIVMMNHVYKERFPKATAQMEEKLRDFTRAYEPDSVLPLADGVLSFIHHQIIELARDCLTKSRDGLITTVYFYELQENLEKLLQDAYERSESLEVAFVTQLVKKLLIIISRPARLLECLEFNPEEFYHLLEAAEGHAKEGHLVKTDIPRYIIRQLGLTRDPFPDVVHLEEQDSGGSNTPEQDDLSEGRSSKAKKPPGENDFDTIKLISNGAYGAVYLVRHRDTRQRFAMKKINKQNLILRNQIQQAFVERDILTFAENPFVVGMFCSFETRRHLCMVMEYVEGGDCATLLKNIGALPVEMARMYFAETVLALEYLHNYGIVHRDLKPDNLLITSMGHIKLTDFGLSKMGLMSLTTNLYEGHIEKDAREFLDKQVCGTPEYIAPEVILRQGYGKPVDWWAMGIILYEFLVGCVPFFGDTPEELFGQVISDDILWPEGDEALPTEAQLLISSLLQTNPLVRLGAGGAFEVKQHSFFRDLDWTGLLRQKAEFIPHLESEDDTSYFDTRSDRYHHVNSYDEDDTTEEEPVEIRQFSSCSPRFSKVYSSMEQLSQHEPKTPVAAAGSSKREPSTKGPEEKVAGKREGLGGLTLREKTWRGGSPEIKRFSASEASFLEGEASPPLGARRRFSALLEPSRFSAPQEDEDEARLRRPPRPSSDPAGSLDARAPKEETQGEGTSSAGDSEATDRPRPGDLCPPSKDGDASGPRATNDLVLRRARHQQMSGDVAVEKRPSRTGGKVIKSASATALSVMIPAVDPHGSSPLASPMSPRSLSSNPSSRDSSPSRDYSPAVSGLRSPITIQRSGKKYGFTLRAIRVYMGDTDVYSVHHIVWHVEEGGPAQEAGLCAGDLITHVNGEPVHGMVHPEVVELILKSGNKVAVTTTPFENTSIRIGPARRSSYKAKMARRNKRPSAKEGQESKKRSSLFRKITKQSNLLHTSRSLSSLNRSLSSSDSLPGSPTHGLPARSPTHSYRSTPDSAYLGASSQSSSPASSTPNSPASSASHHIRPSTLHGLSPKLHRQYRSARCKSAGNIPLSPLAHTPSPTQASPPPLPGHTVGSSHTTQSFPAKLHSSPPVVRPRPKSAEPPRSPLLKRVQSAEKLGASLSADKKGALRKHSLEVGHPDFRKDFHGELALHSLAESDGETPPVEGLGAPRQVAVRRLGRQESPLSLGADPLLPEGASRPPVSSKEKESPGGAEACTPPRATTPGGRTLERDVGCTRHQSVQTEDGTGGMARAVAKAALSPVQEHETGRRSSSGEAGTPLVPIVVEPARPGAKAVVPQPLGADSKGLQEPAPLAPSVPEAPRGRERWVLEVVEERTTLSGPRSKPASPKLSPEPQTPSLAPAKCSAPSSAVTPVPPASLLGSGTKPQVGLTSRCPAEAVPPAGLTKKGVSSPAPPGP
MAST1 truncated mutant MTM1 (1-832 aa): residues 1-832 of Q9Y2H9
MAST1 truncated mutant MTM2 (833-1570 aa): residues 833-1570 of Q9Y2H9
MAST1 truncated mutant MTM3 (1118-1465 aa): residues 1118-1465 of Q9Y2H9
UniProt Q9UM11: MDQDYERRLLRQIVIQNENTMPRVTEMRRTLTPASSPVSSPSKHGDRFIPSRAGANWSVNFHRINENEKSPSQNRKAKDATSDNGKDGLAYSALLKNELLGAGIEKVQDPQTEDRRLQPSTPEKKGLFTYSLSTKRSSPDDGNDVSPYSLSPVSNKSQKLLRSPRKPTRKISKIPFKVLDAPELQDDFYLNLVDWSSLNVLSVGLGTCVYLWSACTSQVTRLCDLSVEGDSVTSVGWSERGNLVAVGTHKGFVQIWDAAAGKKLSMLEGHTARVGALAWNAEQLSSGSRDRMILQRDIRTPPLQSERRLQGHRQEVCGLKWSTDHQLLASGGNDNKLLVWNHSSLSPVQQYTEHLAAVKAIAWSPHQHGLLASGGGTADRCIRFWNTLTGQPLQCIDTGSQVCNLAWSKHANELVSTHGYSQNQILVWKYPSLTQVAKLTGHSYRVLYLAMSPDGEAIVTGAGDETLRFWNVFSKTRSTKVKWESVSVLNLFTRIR
UniProt Q93008: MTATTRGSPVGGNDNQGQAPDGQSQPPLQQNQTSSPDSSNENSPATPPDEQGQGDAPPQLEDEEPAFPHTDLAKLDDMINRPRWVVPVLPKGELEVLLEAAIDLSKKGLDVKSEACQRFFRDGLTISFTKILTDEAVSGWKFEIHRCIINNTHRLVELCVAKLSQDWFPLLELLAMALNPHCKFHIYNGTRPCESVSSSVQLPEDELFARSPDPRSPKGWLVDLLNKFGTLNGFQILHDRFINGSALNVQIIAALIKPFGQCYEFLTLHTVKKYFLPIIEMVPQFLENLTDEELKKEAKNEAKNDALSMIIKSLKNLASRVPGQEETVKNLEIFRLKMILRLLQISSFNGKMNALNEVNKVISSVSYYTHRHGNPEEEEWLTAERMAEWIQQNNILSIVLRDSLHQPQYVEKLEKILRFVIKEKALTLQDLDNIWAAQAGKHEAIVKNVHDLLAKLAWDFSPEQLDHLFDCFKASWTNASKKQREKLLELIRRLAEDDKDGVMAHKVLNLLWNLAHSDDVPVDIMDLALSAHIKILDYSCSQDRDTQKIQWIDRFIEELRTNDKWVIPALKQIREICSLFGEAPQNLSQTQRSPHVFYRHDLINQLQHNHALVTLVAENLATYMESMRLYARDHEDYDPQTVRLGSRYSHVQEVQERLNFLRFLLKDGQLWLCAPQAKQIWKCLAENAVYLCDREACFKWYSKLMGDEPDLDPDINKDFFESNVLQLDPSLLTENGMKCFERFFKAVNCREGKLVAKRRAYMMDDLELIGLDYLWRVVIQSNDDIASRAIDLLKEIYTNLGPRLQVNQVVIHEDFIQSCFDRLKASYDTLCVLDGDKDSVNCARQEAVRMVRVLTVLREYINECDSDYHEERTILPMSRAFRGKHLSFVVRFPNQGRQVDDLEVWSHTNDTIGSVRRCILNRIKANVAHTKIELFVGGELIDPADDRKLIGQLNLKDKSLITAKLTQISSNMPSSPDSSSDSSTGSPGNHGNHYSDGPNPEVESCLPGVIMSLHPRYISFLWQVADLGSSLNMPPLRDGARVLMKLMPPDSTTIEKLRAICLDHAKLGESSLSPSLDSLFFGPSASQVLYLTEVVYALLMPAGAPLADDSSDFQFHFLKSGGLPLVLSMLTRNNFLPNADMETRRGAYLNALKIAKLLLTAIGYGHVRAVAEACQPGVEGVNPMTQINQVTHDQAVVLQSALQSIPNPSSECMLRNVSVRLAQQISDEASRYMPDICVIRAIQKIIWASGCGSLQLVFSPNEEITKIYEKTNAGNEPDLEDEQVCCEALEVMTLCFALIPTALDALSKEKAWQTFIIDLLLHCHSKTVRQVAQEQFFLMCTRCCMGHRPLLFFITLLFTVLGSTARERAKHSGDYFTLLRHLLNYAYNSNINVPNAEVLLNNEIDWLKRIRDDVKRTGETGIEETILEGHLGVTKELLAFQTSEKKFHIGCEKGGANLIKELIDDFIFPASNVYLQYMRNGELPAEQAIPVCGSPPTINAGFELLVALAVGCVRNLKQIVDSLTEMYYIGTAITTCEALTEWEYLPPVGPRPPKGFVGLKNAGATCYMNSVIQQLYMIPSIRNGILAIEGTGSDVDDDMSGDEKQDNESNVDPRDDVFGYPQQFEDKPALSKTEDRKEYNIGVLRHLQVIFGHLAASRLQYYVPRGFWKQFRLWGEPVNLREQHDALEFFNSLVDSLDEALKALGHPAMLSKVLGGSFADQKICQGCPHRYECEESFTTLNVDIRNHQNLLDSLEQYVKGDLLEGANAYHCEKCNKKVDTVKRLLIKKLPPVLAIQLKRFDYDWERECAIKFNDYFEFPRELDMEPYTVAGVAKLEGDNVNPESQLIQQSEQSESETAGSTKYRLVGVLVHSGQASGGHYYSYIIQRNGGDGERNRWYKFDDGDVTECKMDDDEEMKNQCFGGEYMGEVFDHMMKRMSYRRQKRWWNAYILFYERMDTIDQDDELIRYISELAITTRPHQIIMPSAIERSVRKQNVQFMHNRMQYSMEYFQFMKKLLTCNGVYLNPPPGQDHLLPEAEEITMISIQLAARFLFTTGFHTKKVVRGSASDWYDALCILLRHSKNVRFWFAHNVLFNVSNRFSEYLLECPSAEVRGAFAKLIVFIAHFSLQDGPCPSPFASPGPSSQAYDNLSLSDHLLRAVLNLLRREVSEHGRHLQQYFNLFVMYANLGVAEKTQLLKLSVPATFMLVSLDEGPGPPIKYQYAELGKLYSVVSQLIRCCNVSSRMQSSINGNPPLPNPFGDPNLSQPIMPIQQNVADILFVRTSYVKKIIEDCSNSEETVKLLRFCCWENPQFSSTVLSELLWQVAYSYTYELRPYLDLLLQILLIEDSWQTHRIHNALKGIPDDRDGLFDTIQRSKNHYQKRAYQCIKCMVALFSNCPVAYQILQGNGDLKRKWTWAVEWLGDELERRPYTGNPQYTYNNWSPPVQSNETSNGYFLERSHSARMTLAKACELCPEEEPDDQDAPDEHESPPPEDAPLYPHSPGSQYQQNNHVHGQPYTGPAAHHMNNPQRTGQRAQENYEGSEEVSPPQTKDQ

Tests used:
[1] = biological target: Myc-MAST1 (microtubule-associated serine/threonine-protein kinase 1, full length) (human) (UniProt Q9Y2H9); experiment: co-IP; mapping with truncated mutants: Flag- and Myc-tagged constructs co-expressed (cell line not stated); IP lysis buffer with 150 mM NaCl, 1% NP-40; Western blot with the indicated antibodies
[2] = biological target: MAST1 truncated mutant MTM1 (1-832 aa) (human) (UniProt Q9Y2H9); experiment: as above
[3] = biological target: MAST1 truncated mutant MTM2 (833-1570 aa) (human) (UniProt Q9Y2H9); experiment: as above
[4] = biological target: MAST1 truncated mutant MTM3 (1118-1465 aa) (human) (UniProt Q9Y2H9); experiment: as above
[5] = biological target: Myc-MAST1 (microtubule-associated serine/threonine-protein kinase 1, full length) (human) (UniProt Q9Y2H9); experiment: co-IP; Flag- and Myc-tagged full-length proteins co-transfected into HEK293 cells; lysed 48 h after transfection in IP lysis buffer (25 mM Tris-HCl pH 7.4, 150 mM NaCl, 1 mM EDTA, 1% NP-40, 5% glycerol); antibody overnight at 4 °C, protein agarose beads; Western blot
Flag-Cdh1 = Flag-Cdh1 (UniProt Q9UM11); experiment: as above
Flag-USP1 = biological target: T1, Flag-USP1 (UniProt O94782); experiment: as above
T1 sequence: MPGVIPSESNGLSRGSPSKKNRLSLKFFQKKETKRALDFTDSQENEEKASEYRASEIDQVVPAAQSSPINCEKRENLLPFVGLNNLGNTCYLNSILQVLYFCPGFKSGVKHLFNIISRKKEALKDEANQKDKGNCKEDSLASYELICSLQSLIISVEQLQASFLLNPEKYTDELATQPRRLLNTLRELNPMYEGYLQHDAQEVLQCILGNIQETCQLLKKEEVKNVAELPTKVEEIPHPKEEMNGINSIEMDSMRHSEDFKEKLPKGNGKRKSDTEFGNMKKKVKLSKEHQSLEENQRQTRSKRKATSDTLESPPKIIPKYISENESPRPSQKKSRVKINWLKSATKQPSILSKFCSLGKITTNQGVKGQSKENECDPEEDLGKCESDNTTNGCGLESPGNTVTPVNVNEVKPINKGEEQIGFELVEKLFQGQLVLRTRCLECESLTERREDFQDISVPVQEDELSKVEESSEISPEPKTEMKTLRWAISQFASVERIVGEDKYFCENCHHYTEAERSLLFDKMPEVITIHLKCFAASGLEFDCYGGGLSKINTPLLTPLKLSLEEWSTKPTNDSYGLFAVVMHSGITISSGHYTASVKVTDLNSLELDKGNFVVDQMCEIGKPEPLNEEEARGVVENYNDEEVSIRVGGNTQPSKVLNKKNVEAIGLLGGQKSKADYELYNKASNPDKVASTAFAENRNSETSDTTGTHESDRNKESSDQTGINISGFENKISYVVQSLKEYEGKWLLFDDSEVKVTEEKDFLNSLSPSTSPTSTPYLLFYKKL

[6] = biological target: endogenous MAST1 (human (endogenous in HeLa)) (UniProt Q9Y2H9); experiment: proximity ligation; Duolink in situ PLA on fixed cells with primary antibodies against both endogenous proteins; HeLa cells by the legends (A549 by the methods); no dots with single antibodies
[7] = biological target: endogenous MAST1 (human (endogenous in HeLa)) (UniProt Q9Y2H9); experiment: co-IP; endogenous proteins of HeLa cells, precipitated with specific antibodies against either partner; IP lysis buffer with 150 mM NaCl, 1% NP-40; for USP1-MAST1 also after MLN7243 (10 µM) or PR-619 (20 µM) for 1 h, which reduced the interaction against DMSO
[8] = biological target: endogenous Cdh1 (E3 ligase) (human (endogenous in HeLa)) (UniProt Q9UM11); experiment: as above
[9] = biological target: T2, endogenous USP1 (human (endogenous in HeLa)) (UniProt O94782); experiment: as above
T2 sequence: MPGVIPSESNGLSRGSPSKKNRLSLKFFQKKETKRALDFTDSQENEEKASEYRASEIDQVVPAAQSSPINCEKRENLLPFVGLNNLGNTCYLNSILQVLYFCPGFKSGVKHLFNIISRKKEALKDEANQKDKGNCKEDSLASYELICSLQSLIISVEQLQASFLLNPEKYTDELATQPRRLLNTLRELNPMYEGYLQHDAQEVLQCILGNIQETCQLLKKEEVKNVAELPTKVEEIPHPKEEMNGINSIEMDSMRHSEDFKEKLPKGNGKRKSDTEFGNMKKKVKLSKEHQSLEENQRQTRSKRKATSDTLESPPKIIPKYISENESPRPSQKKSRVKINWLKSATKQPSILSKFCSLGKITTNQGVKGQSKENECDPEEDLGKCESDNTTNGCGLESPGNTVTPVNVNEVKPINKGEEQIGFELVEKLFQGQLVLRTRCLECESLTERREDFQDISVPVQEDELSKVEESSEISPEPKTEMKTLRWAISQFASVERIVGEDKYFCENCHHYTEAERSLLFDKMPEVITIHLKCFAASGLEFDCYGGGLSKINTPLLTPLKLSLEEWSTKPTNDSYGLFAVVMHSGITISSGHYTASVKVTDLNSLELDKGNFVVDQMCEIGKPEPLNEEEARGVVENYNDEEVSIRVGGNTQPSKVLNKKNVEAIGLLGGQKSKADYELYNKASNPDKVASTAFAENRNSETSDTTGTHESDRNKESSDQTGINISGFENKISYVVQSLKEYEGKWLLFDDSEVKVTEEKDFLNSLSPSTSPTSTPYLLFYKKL

[10] = biological target: endogenous MAST1 (human (endogenous in HeLa)) (UniProt Q9Y2H9); experiment: co-IP; endogenous USP9X and MAST1; cell line not stated; lysates immunoprecipitated and immunoblotted with the indicated antibodies
[11] = biological target: Myc-MAST1 (microtubule-associated serine/threonine-protein kinase 1, full length) (human) (UniProt Q9Y2H9); experiment: co-IP; mapping with truncated mutants: Flag- and Myc-tagged constructs co-expressed (cell line not stated); IP lysis buffer with 150 mM NaCl, 1% NP-40; Western blot with the indicated antibodies; remark: listed apart in the source
[12] = biological target: Myc-MAST1 (microtubule-associated serine/threonine-protein kinase 1, full length) (human) (UniProt Q9Y2H9); experiment: co-IP; Flag- and Myc-tagged full-length proteins co-transfected into HEK293 cells; lysed 48 h after transfection in IP lysis buffer (25 mM Tris-HCl pH 7.4, 150 mM NaCl, 1 mM EDTA, 1% NP-40, 5% glycerol); antibody overnight at 4 °C, protein agarose beads; Western blot; remark: listed apart in the source

Molecule: Cdh1 truncated mutant CTM2 (156-496 aa) (from UniProt Q9UM11 156-496) (domain or fragment)
- binding [1]: binds

Molecule: Flag-Cdh1 (from UniProt Q9UM11 1-496)
- binding [2]: no binding
- binding [3]: binds
- binding [4]: no binding
- binding [5]: binds

Molecule: Myc-MAST1 (microtubule-associated serine/threonine-protein kinase 1, full length) (from UniProt Q9Y2H9 1-1570)
- binding (Flag-Cdh1): binds
- binding (Flag-USP1): binds

Molecule: endogenous MAST1 (from UniProt Q9Y2H9 1-1570)
- binding [8]: binds
- binding [9]: binds

B1: USP1 truncated mutant UTM3 (201-785 aa) (domain or fragment, UniProt O94782 201-785)
chain: QEVLQCILGNIQETCQLLKKEEVKNVAELPTKVEEIPHPKEEMNGINSIEMDSMRHSEDFKEKLPKGNGKRKSDTEFGNMKKKVKLSKEHQSLEENQRQTRSKRKATSDTLESPPKIIPKYISENESPRPSQKKSRVKINWLKSATKQPSILSKFCSLGKITTNQGVKGQSKENECDPEEDLGKCESDNTTNGCGLESPGNTVTPVNVNEVKPINKGEEQIGFELVEKLFQGQLVLRTRCLECESLTERREDFQDISVPVQEDELSKVEESSEISPEPKTEMKTLRWAISQFASVERIVGEDKYFCENCHHYTEAERSLLFDKMPEVITIHLKCFAASGLEFDCYGGGLSKINTPLLTPLKLSLEEWSTKPTNDSYGLFAVVMHSGITISSGHYTASVKVTDLNSLELDKGNFVVDQMCEIGKPEPLNEEEARGVVENYNDEEVSIRVGGNTQPSKVLNKKNVEAIGLLGGQKSKADYELYNKASNPDKVASTAFAENRNSETSDTTGTHESDRNKESSDQTGINISGFENKISYVVQSLKEYEGKWLLFDDSEVKVTEEKDFLNSLSPSTSPTSTPYLLFYKKL
- binding [11]: binds

B3: Flag-USP44 (enzyme, UniProt Q9H0E7 1-712)
chain: MLAMDTCKHVGQLQLAQDHSSLNPQKWHCVDCNTTESIWACLSCSHVACGRYIEEHALKHFQESSHPVALEVNEMYVFCYLCDDYVLNDNTTGDLKLLRRTLSAIKSQNYHCTTRSGRFLRSMGTGDDSYFLHDGAQSLLQSEDQLYTALWHRRRILMGKIFRTWFEQSPIGRKKQEEPFQEKIVVKREVKKRRQELEYQVKAELESMPPRKSLRLQGLAQSTIIEIVSVQVPAQTPASPAKDKVLSTSENEISQKVSDSSVKRRPIVTPGVTGLRNLGNTCYMNSVLQVLSHLLIFRQCFLKLDLNQWLAMTASEKTRSCKHPPVTDTVVYQMNECQEKDTGFVCSRQSSLSSGLSGGASKGRKMELIQPKEPTSQYISLCHELHTLFQVMWSGKWALVSPFAMLHSVWRLIPAFRGYAQQDAQEFLCELLDKIQRELETTGTSLPALIPTSQRKLIKQVLNVVNNIFHGQLLSQVTCLACDNKSNTIEPFWDLSLEFPERYQCSGKDIASQPCLVTEMLAKFTETEALEGKIYVCDQCNSKRRRFSSKPVVLTEAQKQLMICHLPQVLRLHLKRFRWSGRNNREKIGVHVGFEEILNMEPYCCRETLKSLRPECFIYDLSAVVMHHGKGFGSGHYTAYCYNSEGGFWVHCNDSKLSMCTMDEVCKAQAYILFYTQRVTENGHSKLLPPELLLGSQHPNEDADTSSNEILS
- binding [12]: binds

Other lines, results leading:

- binding [1]: no binding
Molecule: Cdh1 truncated mutant CTM1 (1-155 aa) (from UniProt Q9UM11 1-155) (domain or fragment)

- binding [6]: binds
- binding [7]: binds
Molecule: endogenous Cdh1 (E3 ligase) (from UniProt Q9UM11 1-496)

- binding [10]: binds
Molecule: endogenous USP9X (from UniProt Q93008 1-2554) (enzyme)

- binding [11]: no binding
B2: USP1 truncated mutant UTM1 (1-400 aa) (domain or fragment, UniProt O94782 1-400)
chain: MPGVIPSESNGLSRGSPSKKNRLSLKFFQKKETKRALDFTDSQENEEKASEYRASEIDQVVPAAQSSPINCEKRENLLPFVGLNNLGNTCYLNSILQVLYFCPGFKSGVKHLFNIISRKKEALKDEANQKDKGNCKEDSLASYELICSLQSLIISVEQLQASFLLNPEKYTDELATQPRRLLNTLRELNPMYEGYLQHDAQEVLQCILGNIQETCQLLKKEEVKNVAELPTKVEEIPHPKEEMNGINSIEMDSMRHSEDFKEKLPKGNGKRKSDTEFGNMKKKVKLSKEHQSLEENQRQTRSKRKATSDTLESPPKIIPKYISENESPRPSQKKSRVKINWLKSATKQPSILSKFCSLGKITTNQGVKGQSKENECDPEEDLGKCESDNTTNGCGLESPG

- binding [11]: binds
B4: USP1 truncated mutant UTM2 (401-785 aa) (domain or fragment, UniProt O94782 401-785)
chain: NTVTPVNVNEVKPINKGEEQIGFELVEKLFQGQLVLRTRCLECESLTERREDFQDISVPVQEDELSKVEESSEISPEPKTEMKTLRWAISQFASVERIVGEDKYFCENCHHYTEAERSLLFDKMPEVITIHLKCFAASGLEFDCYGGGLSKINTPLLTPLKLSLEEWSTKPTNDSYGLFAVVMHSGITISSGHYTASVKVTDLNSLELDKGNFVVDQMCEIGKPEPLNEEEARGVVENYNDEEVSIRVGGNTQPSKVLNKKNVEAIGLLGGQKSKADYELYNKASNPDKVASTAFAENRNSETSDTTGTHESDRNKESSDQTGINISGFENKISYVVQSLKEYEGKWLLFDDSEVKVTEEKDFLNSLSPSTSPTSTPYLLFYKKL
